# Data as given in the supplement of paper PMC7125110.
# ± gives the standard error. This sample is rich in variants without activity.
# B1: glmS ribozyme (parent)
# chain: AUAAAAGCGCCAGAACUACAGAAAUGUAGUUGACGAGGAGGAGGUUUAUCGAAUUUUCGGCGGAUGCCUCCAAA
# Key:
# Conditions in all cases: with glucosamine-6-phosphate
# [1] = variants of: B1; test: self-cleavage kobs at 640 uM GlcN6P; higher = faster cleavage; RNA array
# In short: (§1)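 On sequenced MiSeq chips, barcoded ribozyme variants were made in situ by E. coli RNA polymerase and followed at 37 °C through a hybridised Cy3 probe. Glucosamine-6-phosphate was flowed in at 40 μM to 10 mM in HEPES/KCl/Mg(OAc)2 buffer. Exponential fits to normalised per-tile medians gave kobs, and weighted Michaelis–Menten fits gave kcat and KM.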
# [2] = variants of: B1; test: self-cleavage kobs at 160 uM GlcN6P; higher = faster cleavage; RNA array
# In short: as §1
# [3] = variants of: B1; test: self-cleavage kobs at 2500 uM GlcN6P; higher = faster cleavage; RNA array
# In short: as §1
# [4] = variants of: B1; test: self-cleavage kobs at 10000 uM GlcN6P; higher = faster cleavage; RNA array
# In short: as §1
Variant,self-cleavage kobs at 640 uM GlcN6P [1] [s⁻¹],self-cleavage kobs at 160 uM GlcN6P [2] [s⁻¹],self-cleavage kobs at 2500 uM GlcN6P [3] [s⁻¹],self-cleavage kobs at 10000 uM GlcN6P [4] [s⁻¹]
C11G A42C,< 1e-05,< 1e-05,< 1e-05,
C11G C16U G35C U65A,< 1e-05,,,
C10G G40C C71G,< 1e-05,,< 1e-05,
C11U G26A G35A G60C,< 1e-05,,,
A12C A33U G38C,< 1e-05,< 1e-05,< 1e-05,
A12U C68G,8.22e-05 ± 7.3e-06,5.38e-05 ± 6.4e-06,0.00016 ± 1.2e-05,0.000186 ± 1.6e-05
A12U C68A,7.24e-05 ± 3.4e-05,,2.89e-05 ± 1.2e-05,
C11U C16G,0.000104 ± 1.9e-05,,,
C11U C16A,4.38e-05 ± 1.9e-05,,0.000106 ± 2.2e-05,0.000145 ± 2.9e-05
C11G A52C U57C G62C,< 1e-05,,,
C11G U49C,< 1e-05,,,
A12C A33U U65C,< 1e-05,< 1e-05,,
A12U A52U,0.000233 ± 3.8e-05,7.11e-05 ± 2e-05,,
A12U U30A G38U,< 1e-05,,,
A12U G29U A36C,< 1e-05,< 1e-05,< 1e-05,
A12G G40U A42C,< 1e-05,< 1e-05,,
C10G G41C G63U,< 1e-05,< 1e-05,,
C11A A14G U65G,5.21e-05 ± 1.7e-05,,9.32e-05 ± 2e-05,0.000135 ± 1.7e-05
G13A C67A,2.62e-05 ± 8.7e-06,,0.000133 ± 2.4e-05,0.000181 ± 2.5e-05
C11A A15U A36G C70U,< 1e-05,,,
C11U A14G A52G,8.93e-05 ± 1.6e-05,,0.00029 ± 8e-05,
G13A U31G G35C,< 1e-05,,,
C11A G44U G59A C70A,< 1e-05,< 1e-05,,
A12U A15U C68G,8.06e-05 ± 2.7e-05,,,
A12G U47C,0.000111 ± 1.5e-05,3.52e-05 ± 1.3e-05,0.000412 ± 8.3e-05,0.000577 ± 6.1e-05
C11G C34A G43U,< 1e-05,,< 1e-05,< 1e-05
C11A A33U A64C,< 1e-05,,< 1e-05,
G13A G35A G41U C68U,< 1e-05,< 1e-05,< 1e-05,
